# Test results reported in PubChem BioAssay (NCATS).
# The inconclusive results got no clear call from the source; some entries with a clear call stand among them for comparison. For part of these data: Where the call is inconclusive, the potency comes from a doubtful curve fit. Activity calls are given as the source filed them. Calls come from the whole dose curve; as a rule, active = well fitted inhibition curve with a large enough effect; inconclusive = small, poorly fitted or top-dose-only effect; inactive = no such curve, though single readings can be large or run the other way.
# Key:
# [1] = biological target: Retinaldehyde dehydrogenase 3 (Homo sapiens) (UniProt P47895); test: qHTS for Inhibitors of the Aldehyde Dehydrogenase Family (ALDH1A3) Primary screen (AID 2061315); conditions: ALDH inhibition qHTS; activity change, negative = inhibition: at 56 µM (top of the series) unless noted; note: potency is the fitted concentration of half-maximal effect
# [2] = biological target: Retinal dehydrogenase 2 (Homo sapiens) (UniProt O94788); test: qHTS for Inhibitors of the Aldehyde Dehydrogenase Family (ALDH1A2) Confirmation screens (AID 2061314); conditions: activity, negative = inhibition: at 45.9 µM (top of the series) unless noted; note: nearly all actives have a fitted effect of over 65% in size; note: potency is the fitted concentration of half-maximal effect
# [3] = biological target: Aldehyde dehydrogenase 1A1 (Homo sapiens) (UniProt P00352); test: qHTS for Inhibitors of the Aldehyde Dehydrogenase Family (ALDH1A1) Confirmatory screens (AID 2061316); conditions: activity change, negative = inhibition: at 47.3 µM (top of the series); note: nearly all actives have a fitted effect of over 65% in size
# Tags give direction and shape of the fitted curve.
compound,measurement,setting,value
COc1ccc(/C=C(\C)C2Nc3cccc4cccc(c34)N2)cc1,Potency,[1],"inconclusive: 7.08 µM [inhibitor, partial curve, poor fit]"
O=C(c1ccc(-c2cc(O)c3ncccc3c2)cc1)N1CCNCC1,Potency,[2],"inconclusive: 0.634 µM [inhibitor, partial curve]"
same,Potency,[3],inactive
O=C(c1ccc(F)cc1)N1CCCC2(CNc3ccccc3[S+](=O)([O-])N2)C1 (centres undefined),Potency,[2],"inconclusive: 0.1 µM [inhibitor, full curve, poor fit]"
COc1ccccc1-c1[nH]nc2ncc(C(=O)NCCc3ccccn3)nc12,Potency,[2],active: 39.8 µM
CCOc1ccc(NC(=O)CCCc2nc(-c3cccc(OC)c3)no2)cc1,Potency,[2],"inconclusive: 25.1 µM [inhibitor, partial curve, poor fit]"
CC1CCC2C(C(=O)O)=CC3(O)CC(C)(C)CC123 (centres undefined),Potency,[1],"inconclusive: 3.55 µM [inhibitor, partial curve, poor fit]"
COc1ccccc1NC(=O)c1ccc2ccccc2c1,Potency,[1],inactive
O=C(OC[C@H]1O[C@@H](Oc2ccccc2CO)[C@H](O)[C@@H](O)[C@@H]1O)c1ccccc1,Potency,[1],"inconclusive: 12.6 µM [inhibitor, single point]"
COC(=O)c1cc(C)nc2c1c(=O)nc(SCc1ccccc1Cl)n2C1CC1,Potency,[2],inactive
COc1ccc(S(=O)(=O)N2CCC3(CC2)CC(CC(=O)NC2CC2)CCO3)cc1 (centres undefined),Potency,[2],inactive
O=C(Nc1nnc(-c2ccncc2)s1)Nc1ccc(Cl)c2ccccc12,Potency,[1],"inconclusive: 22.4 µM [inhibitor, partial curve, poor fit]"
COc1ccc(OC)c(N2C(=O)C(Cl)=C(N3CCCCC3)C2=O)c1,Potency,[1],"inconclusive: 14.1 µM [inhibitor, partial curve, poor fit]"
C=C[C@H]1C(O[C@@H]2O[C@H](CO)[C@@H](O)[C@H](O)[C@H]2O)OC=C2C(=O)N3CCc4c([nH]c5ccccc45)C3CC21 (some centres undefined),Potency,[1],"inconclusive: 11.2 µM [inhibitor, partial curve, poor fit]"
C=C1C(O)CC2C(C(=O)O)=COC(OC3OC(CO)C(O)C(O)C3OC(=O)/C=C\c3ccc(O)cc3)C12 (centres undefined),Potency,[1],"inconclusive: 14.1 µM [inhibitor, partial curve]"
COc1cc(/C=C/C(=O)OC2CC3CCC2(C)C3(C)C)ccc1O (centres undefined),Potency,[1],inactive
C=CCC1=C[C@]2(OC)[C@H](C)[C@@H](c3ccc(O)c(OC)c3)O[C@]2(OC)CC1=O,Potency,[1],"inconclusive: 10 µM [inhibitor, partial curve, poor fit]"
CC(C)(C)OC(=O)N1CCN(c2ccc(NCc3ccc(-c4cc(C(F)(F)F)cc(C(F)(F)F)c4)o3)cc2)CC1,Potency,[1],"inconclusive: 1.12 µM [inhibitor, full curve, poor fit]"
COc1cc([C@H]2OC[C@](O)(Cc3ccc(O[C@@H]4O[C@H](CO)[C@@H](O)[C@H](O)[C@H]4O)c(OC)c3)[C@@H]2CO)ccc1O,Potency,[1],"inconclusive: 4.47 µM [inhibitor, partial curve]"
C[C@@H]1O[C@@H](O[C@H]2[C@H](O[C@H]3CC[C@@]4(C)C(CC[C@]5(C)C4CC=C4[C@@H]6CC(C)(C)CC[C@]6(C(=O)O[C@@H]6OC[C@H](O)[C@H](O)[C@H]6O[C@@H]6O[C@@H](C)[C@H](O[C@@H]7O[C@H](CO)[C@@H](O)[C@H](O)[C@H]7O)[C@H](O)[C@H]6O)[C@H](O)C[C@]45C)C3(C)C)O[C@H](CO)[C@@H](O[C@@H]3OC[C@@H](O)[C@H](O)[C@H]3O)[C@@H]2O)[C@H](O)[C@H](O)[C@H]1O (some centres undefined),Potency,[1],"inconclusive: 2.82 µM [inhibitor, partial curve]"
FC(F)(F)c1ccccc1-c1nc(NCc2ccc(-c3cccc4ccccc34)cc2)c2ccccc2n1,Potency,[1],"inconclusive: 6.31 µM [inhibitor, partial curve, poor fit]"
CN(C(=O)OC(C)(C)C)c1ccc(-c2nc3ccccc3s2)cc1,Potency,[1],"inconclusive: 4.47 µM [inhibitor, full curve]"
Cc1nnc(-c2ccc(-c3ccc(C(=O)Nc4ccc(O)c(N5CCN(C)CC5)c4)cc3)c(C)c2)o1,Potency,[1],"inconclusive: 10 µM [inhibitor, partial curve]"
CN1CCCC1Cc1c[nH]c2ccc(CCS(=O)(=O)c3ccccc3)cc12 (centres undefined),Potency,[1],"inconclusive: 11.2 µM [inhibitor, partial curve, poor fit]"
